# The source gives no read counts; variants with many changes may rest on few reads.
# B1: LINE1-mini (parent)
# chain: GGCAGAGCUCAACACAGCGUGGCAAAGUGGCUGUGGCUAGACUGCC
# Variants of: B1
# Experiment: self-cleavage, relative activity (ratio to wild type); higher = more cleavage; in vitro, sequencing; the parent is a self-cleaving ribozyme
row,Variant,self-cleavage
1,G1U C15G C18U U43C,0
2,G1U C23A G35C,0.1
3,G1U G17C G30A C42U G44A,0.03
4,G1U G5U G30A C37G,0.36
5,G1U G5C A11C G22C C23U,0
6,G1U G2U C31U,0.02
7,G1U C23A G35A C42A,0.04
8,G1U U28G C45A,0.23
9,G1U G21A C23A A39G,0.03
10,G1U C18U G30C C31U A39C,0.03
11,G1U G29A G33U G35U,0
12,G1U G5C G19C U20C U43G,0
13,G1U C23U A39C C42U G44C,0
14,G1U G7A G19A U34C C37U G40A A41G C42U,0.03
15,G1U G5A G29A C31A G40A,0.01
16,G1U C15U G29C C31G,0.08
17,G1U G5U A12G G44A,0.02
18,G1U U9A G21U,0.06
19,G1U U28C G33C U34C,0
20,G1U U20A G40A,0.03
21,G1U G17C G36A,0.11
22,G1U G2U A4G G7C,0.14
23,G1U U9G G33U U38C,0.01
24,G1U G29U G30C,0.83

row,Variant,self-cleavage
1,G1U C15A G21U U32G,0.03
2,G1U G19A G33U U38C,0.01
3,G1U U9A C10G C13A,0.01
4,G1U G2C C3G C13U,0.28
5,G1U G5A C8G C18U C23A G29U G35U C45U,0.03
6,G1U C15A G36U G44C,0.02
7,G2A A4C G5U C13A G21C G29A,0.12
8,G1U G7A A12G A16C C18A A24U C37A,0.06
9,G1U G5C C13A G40A,0.01
10,G1U G5A G7U U32G C45U,0.12
11,G1U G2U G19A G30U,0.07
12,G1U G7U A12G,0.02
13,G1U U9A C10G A26G U28G G40A,0.01
14,G1U C13G G36A,0.02
15,G1U G33C G40U,0.02
16,G1U C37A C46G,0.01
17,G1U G27U G33C,0.03
18,G1U G7A G29U C46A,0.08
19,G1U G22C A24U C37A,0.01
20,G1U C13U A14U G17C G19A,0.14
21,G1U G19U U38G,0.03
22,G1U C23U C37U,0.02
23,G1U G5C G7A,0.43
24,G1U G7A U34C U43C,0.06

row,Variant,self-cleavage
1,G1U G19U G29U U43A,0.02
2,G1U G21A C42G,0.02
3,G1U U20C G29A G33C,0.01
4,G1U G2C A4G,0.26
5,G1U G5U C10A U38G,0.01
6,G1U G21C A26U G33C,0.01
7,G1U G5A C18U G22C C31A U32C G33U G44U,0.03
8,G1U G2C G5A G7A G17U G36A,0.1
9,G1U G5C A6U G44U,0.08
10,G1U G5C A14U,0.04
11,G1U G22A C46G,0.07
12,G2A A4C G22C U34C,0.22
13,G1U G5A U20G C42U,0.12
14,G1U C23G A24C U28G C31A,0.02
15,G1U U9G C18G C31A,0.03
16,G1U G19C G27C,0.06
17,G1U U9A G36U,0.01
18,G1U C15U C23G C37U,0.02
19,G1U G2A C18G,0.05
20,G1U C18A G30U A39C A41U,0.01
21,G1U G19U G33A,0.07
22,G1U U9A G27U U38C,0.01
23,G1U G5U A6C G21C,0.07
24,G1U G19C A26G U38G,0

row,Variant,self-cleavage
1,G1U G2C C10A A12C C18A,0.01
2,G1U C31G C45A,0.04
3,G1U C31G C45G,0.04
4,G1U G7A C18A U20G G40C,0.29
5,G2A A4C A6G G40U A41U G44A,0.1
6,G1U G21U C31A,0.06
7,G1U G2U G7A C8A,0
8,G1U G22U G33U,0.05
9,G1U C15A C45A,0.06
10,G1U U20A U28G G36C,0.03
11,G1U G5A C13A G36U,0.06
12,G1U G2A A26C A41G,0.03
13,G1U G21U A24G A41U,0.08
14,G1U U32C U38G,0.09
15,G2A A4C C31G,0.09
16,G1U G5A G17C A26C,0.41
17,G1U C13U A41G,0.06
18,G1U G17A G35C,0.05
19,G1U G2C U20A,0.07
20,G1U G7U G19C,0.03
21,G1U G2A C15A A24U A26C,0.24
22,G1U C18G G19A,0.04
23,G1U G30U G36U C37A,0.02
24,G1U G2A C23A G40U,0.01

row,Variant,self-cleavage
1,G1U C13U A24U G33C C45U,0.02
2,G1U U9G C15U,0.04
3,G1U U9A A24U G27C U28C G30A,0.01
4,G1U G2A U9A C13A C45A,0.3
5,G1U C13U C18A A24C,0.05
6,G1U G7A C13U C37G,0.06
7,G1U C31U A41G,0.01
8,G1U G2A C3U G19A G29U,0.4
9,G1U G21A A25G G30A U32A,0.13
10,G1U C13G U43A,0.02
11,G1U C15U G44U,0.08
12,G1U U34G C42G,0.03
13,G1U C31A C37A C45G,0.02
14,G1U G7A A12G,0.25
15,G1U C15G G33U C37G C45G,0.01
16,G1U C37G G40U,0.03
17,G1U G2U A14G,0.02
18,G1U G33C C45A,0.03
19,G1U U20C G22A U43A,0.03
20,G1U G30U C46A,0.83
21,G1U G5U U9G,0.03
22,G1U C15U A24C U32G G40A,0.05
23,G1U G22U G40U,0.07
24,G1U G5A C23A A25U,0.23

row,Variant,self-cleavage
1,G1U C31G G40U,0.02
2,G1U G7A G22C G40A,0.06
3,G1U G19U U43C,0.03
4,G1U G5U G33U,0.07
5,G1U U9G U20A A25G A39G U43C C45A,0.01
6,G1U G7U C31G A39U,0.09
7,G1U G5U A24G G29C,0.02
8,G1U G5U A12U,0.05
9,G1U C23A G35U A41G,0.25
10,G1U G27A U34C U43C,0.01
11,G1U C13U A16G G22U U32C G36A G40U,0.02
12,G1U U28C G40C C45U,0
13,G1U G30C C31A G33C,0
14,G1U G7A C13A G17C G29A,0.21
15,G1U U9C A14U C15A A16U C18A C45A,0.01
16,G1U G30A U43A,0.2
17,G1U G5C U28G C31U,0.02
18,G1U C15A A25C,0.04
19,G1U G19A C46A,0.6
20,G1U C15U U38G,0.01
21,G1U G5U A25U,0.11
22,G1U G19A U20G,0.25
23,G1U G2A G5U A12G G33A,0.01
24,G1U G5A C18A C45A,0.08

row,Variant,self-cleavage
1,G1U G21A A25U G35A C37G,0.45
2,G1U U20G C23U G33U A41G,0.02
3,G1U G19U G35A,0.19
4,G1U G19C U32A G40A G44C,0
5,G1U G7C C13A C37U,0.07
6,G1U G21C A26U G30A A41G,0.2
7,G1U G7C G40U,0.07
8,G1U G2A C31A G35A G36C,0.01
9,G1U G19U C46U,0.44
10,G1U C18A U34G G35U,0.02
11,G1U C15A A24C U28C,0.06
12,G1U G2A A14G C23U G36A,0.04
13,G1U C13U U28C,0.08
14,G1U G7U G17U G22U U43G,0
15,G1U G2A G7C A16U C18U U34G,0.11
16,G1U G27U C37U,0.05
17,G1U G2C A4U A14C U20C A24U G27U,0.03
18,G1U G2C C10A A16U C23U A25G G36A,0.01
19,G2A A4C A14C G35U,0.42
20,G1U U9A G27C C45A,0.02
21,G1U G2U A4U G30A G35A G44U,0.04
22,G1U G17C G22U,1.28
23,G1U G5U A25U G44U,0.05
